This is an account of results in US20220251215A1.

Assay [1] deals with HLA.A2 with NY-ESO-1: 157-165 on IM9 cells. Description: cell-based or functional assay.
In assay [2] the target is HLA.A2/hB2M/NY-ESO-1: 157-165 WT on 3T3 cells (human) (UniProt P04439). Description: cell-based or functional assay.

B1: NY-ESO CAR-T 24955N VL-VH (protein, part only; not given: scFv linker, hinge, signalling domains, not shown: large carriers)
chain, part: [in this place about 100 residues]TRLEIKEVQLVESGGGVVQPGGSLRLSCVASGFTFDDYAMYWVRQVPGKDLEWVSLISGDGDITYYVDSVKGRFTVSRDNNKNSLYLQMKSLRVEDTALYYCAKDMIYYASWSGYGSSDYYYYVMDVWGQGTTVTVSS
As to B1, the results for the EC50 (#of APC cells), NFAT-luciferase in assay [1] and in assay [2] were 253000 APC cells and 88700 APC cells, respectively. The Max Fold (RLU), NFAT-luciferase in assay [1] was 4.1 fold; in assay [2] it was 30.5 fold.

B2: NY-ESO CAR-T 24956N VL-VH (protein, part only; not given: scFv linker, hinge, signalling domains, not shown: large carriers)
chain, part: [in this place about 100 residues]PITFGQGTRLEIKEVQLVESGGGVVQPGGSLRLSCAASGFTFDDYAMYWVRQAPGKGLEWVSLISGDGGSMYYADSVKGRFTISRDNSKNSLYLQMNSLRTEDTALYYCAKDMIFYAFWSGYGSSDYYYYVMDVWGQGTTVTVYS
In assay [1], B2 had an EC50 (#of APC cells), NFAT-luciferase of 112000 APC cells and a Max Fold (RLU), NFAT-luciferase of 4.4 fold. In assay [2], the EC50 (#of APC cells), NFAT-luciferase worked out at 25900 APC cells and the Max Fold (RLU), NFAT-luciferase was 38.1 fold.
